The DeepSol protein solubility set

Assay: soluble on expression in E. coli; label from the status in PepcDB or PDB records

Sequence	soluble on expression in E. coli
MSLAKPAVFLDRDGVINVDHGYVHDEHDFQFIEGVFEATAALQRMGYLLVLVTNQSGIARGKFSEERFISLTQWMDWNFADNGVEFDGIYYCPHHAEHGIGQYKEECDCRKPKPGMFLSARDFLNIDMANSVMVGDKAEDMMAAEAAGVGTKILVRTGKPITEQGEALATVVLDSIRDVPHYLLRVKKEGHHHHHH	soluble
MSLTDRLASLFESAVSMLPMSEARSLDLFTEITNYDESACDAWIGRIRCGDTDRVTLFRAWYSRRNFGQLSGSVQISMSTLNARIAIGGLYGDITYPVTSPLAITMGFAACEAAQGNYADAMEALEAAPVAGSEHLVAWMKAVVYGAAERWTDVIDQVKSAGKWPDKFLAGAAGVAHGVAAANLALFTEAERRLTEANDSPAGEACARAIAWYLAMARRSQGNESAAVALLEWLQTTHPEPKVAAALKDPSYRLKTTTAEQIASRADPWDPGSVVTDNSGRERLLAEAQAELDRQIGLTRVKNQIERYRAATLMARVRAAKGMKVAQPSKHMIFTGPPGTGKTTIARVVANILAGLGVIAEPKLVETSRKDFVAEYEGQSAVKTAKTIDQALGGVLFIDEAYALVQERDGRTDPFGQEALDTLLARMENDRDRLVVIIAGYSSDIDRLLETNEGLRSRFATRIEFDTYSPEELLEIANVIAAADDSALTAEAAENFLQAAKQLEQRMLRGRRALDVAGNGRYARQLVEASEQCRDMRLAQVLDIDTLDEDRLREINGSDMAEAIAAVHAHLNMREGHHHHHH	soluble
